Data published in PubChem BioAssay AID652104 (National Center for Advancing Translational Sciences (NCATS), 2013).
Hit rate of the full screen: of about 410,000 compounds, about 7,200 (1.8%) were called active. The shares of active, inactive and inconclusive entries below differ from those in the screen. The call rests on the fitted dose curve; in most records, active means well fitted activation curve with a large enough effect; inconclusive means small, poorly fitted or top-dose-only effect, or another doubt; inactive means no such curve, though single readings can be large or run the other way. Potencies of inconclusive entries are left out as doubtful fits.
Potency means the concentration at half of the fitted maximal effect; tags describe the fitted curve by direction and shape.

Assay: qHTS of TDP-43 Inhibitors; further: nearly all actives have a fitted effect of over 50% in size; on growth rescue (activation): % of control where 0% means no effect
Conditions: TDP-43 expressing yeast growth rescue, BacTiter-Glo, 24 h; growth rescue (activation): at 46.1 µM (top of the series) unless noted
Summary of the method: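 Galactose-induced TDP-43 yeast, OD600=0.02, compound pinned; 24 hr, 30 deg C; BacTiter-Glo luminescence for growth. Inhibitors of TDP-43 toxicity read as activators.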
In the case of CCOC(=O)c1cc(-c2ccc(OC)c(S(=O)(=O)N3CCN(c4ccccc4)CC3)c2)on1, the “growth rescue (activation)” value is reported as inactive: 21.6%. In the case of COc1ccc(S(=O)(=O)c2nnn(-c3cccc(Cl)c3)c2N)cc1, the Potency is reported as inconclusive [activator, partial curve]. For C[C@H](NC(=O)OC(C)(C)C)C(=O)N/N=C/C1=Cc2ccccc2OC1, the “growth rescue (activation)” value was inactive: 8.16%. With COC(=O)c1ccc(NC(=O)c2ccc3nc(C)sc3c2)cc1 the Potency was inconclusive [activator, single point]. With Cc1ccc(-c2cc(N)n(-c3ccccc3)n2)cc1 the Potency was active: 20 µM. With Cc1ccccc1OCC(=O)Nc1ccc2nc(SCC(=O)N3CCCC3)sc2c1 the Potency was inconclusive [activator, single point]. For CCn1c(-c2ccccc2Cl)nn(CC(=O)Nc2ccccc2OC)c1=S, the Potency was inconclusive [activator, partial curve, poor fit]. For O=C1C(Cl)=C(Nc2ccccc2O)C(=O)N1CCc1ccccc1, the Potency was inconclusive [activator, partial curve]. With O=C(c1cccc(S(=O)(=O)N2CCN(c3ccc(F)cc3)CC2)c1)N1CCCCCCC1 the Potency was inconclusive [activator, single point]. With COc1ccc(CNC(=O)C(C#N)c2nc3ccccc3nc2N2CCN(C)CC2)cc1 (stereo unspecified) the “growth rescue (activation)” value was inactive: -7.22%. For COc1cc2c(cc1OC)C(C)N(C(=O)c1cc(C)on1)CC2 (stereo unspecified), the “growth rescue (activation)” value was inactive: 23.5%. With Cc1cccc(CNS(=O)(=O)c2ccc(-c3coc(C)n3)cc2)c1 the Potency was inconclusive [activator, partial curve]. With O=C(Nc1ccc(F)c(F)c1)C1CCCCC1 the Potency was inconclusive [activator, full curve]. With CCOC(=O)N1CCN(C(=O)CN(c2ccc(C)cc2C)S(=O)(=O)c2ccccc2)CC1 the “growth rescue (activation)” value was inactive: 23.2%. For COC(=O)c1ccc(Sc2nnnn2-c2ccccc2)c([N+](=O)[O-])c1, the Potency was inconclusive [activator, single point]. With Cc1ccc(C(=O)OCC(=O)NCc2cccc(Cl)c2)cc1S(=O)(=O)N1CCCCC1 the Potency was inconclusive [activator, single point]. In the case of COc1ccccc1N(C(=O)c1ccncc1)c1nc(-c2ccc([N+](=O)[O-])cc2)cs1, the Potency is reported as inconclusive [activator, single point]. In the case of CC12CCC(O)CC1=CCC1C2CCC2(C)c3[nH]ncc3CC12 (stereo unspecified), the Potency is reported as inconclusive [activator, single point]. With O=C1CN(C(=O)CSc2nc3cc(Cl)ccc3c(=O)n2Cc2ccccc2)c2ccccc2N1 the Potency was inconclusive [activator, partial curve]. In the case of COc1ccccc1OCC(=O)Nc1nnc(C2CCCC2)s1, the Potency is reported as inconclusive [activator, full curve]. With CC(=O)c1cccc(Nc2nc(-c3sc(N)nc3C)cs2)c1 the “growth rescue (activation)” value was inactive: 23.5%. For Cc1cc(N/N=C/c2cccc(Cl)c2)nc(-n2nc(C)cc2C)n1, the Potency was active: 14.1 µM. For O=C(c1cc(-c2ccc(O)cc2)on1)N1CCN(c2ccc(F)cc2)CC1, the Potency was active: 15.8 µM. In the case of Cc1cc(C)c2nc(NNC(=O)c3cc(-c4cccs4)nc4ccccc34)sc2c1, the Potency is reported as inconclusive [activator, full curve]. With COc1ccc(-n2cnc3ccccc3c2=O)c([N+](=O)[O-])c1 the Potency was inconclusive [activator, full curve]. With COc1ccc(-c2oc3c(c2C#CC(C)(C)O)C(OC)CCC3)cc1 (stereo unspecified) the Potency was inconclusive [activator, partial curve]. In the case of C=Cc1ccc(CC2(C)C(=O)Nc3c(Cl)cccc32)cc1 (stereo unspecified), the “growth rescue (activation)” value is reported as inactive: -37.4%. For N#Cc1cc(Oc2ccc(Cl)cc2)c(N2CCOCC2)cc1C#N, the Potency was inconclusive [activator, single point]. For Cc1cc(-c2nnc3n2N=C(c2ccccc2Br)CS3)n[nH]1, the “growth rescue (activation)” value was inactive: 0.668%. For CC1(c2nnc(-c3ccc(Cl)cc3)o2)CC(c2c(Cl)cccc2Cl)=NO1 (stereo unspecified), the “growth rescue (activation)” value was inactive: 24.1%. With COC(=O)CC1COc2ccccc2N1C(=O)c1ccc(Br)cc1 (stereo unspecified) the Potency was inconclusive [activator, single point]. With O=c1[nH]c2cc(Cl)ccc2n1-c1ccccc1 the Potency was inconclusive [activator, single point]. In the case of COc1ccc(-c2ccc(C#N)c(OC)n2)cc1, the “growth rescue (activation)” value is reported as inactive: 23.4%. For COc1ccc(S(=O)(=O)N(C)Cc2cccs2)cc1Br, the Potency was active: 15.8 µM. With CCCCNC(=O)COC(=O)c1c2c(nc3ccccc13)/C(=C/c1cccs1)CC2 the Potency was inconclusive [activator, partial curve]. With CCOc1ccccc1NC(=O)CSc1cc(=O)n(CC)c2ccccc12 the Potency was inconclusive [activator, full curve, poor fit]. For CC(OC(=O)C1CCCCC1)C(=O)Nc1cccc(Cl)c1 (stereo unspecified), the Potency was inconclusive [activator, single point]. In the case of CCCn1c(-c2ccc(OC)cc2)nc2nc3ccccc3nc21, the “growth rescue (activation)” value is reported as inactive: -0.47%. For Cc1ccc(NC(=O)CCn2cccc2)cc1, the Potency was inconclusive [activator, partial curve]. With CCc1ccc(NC(=O)c2ccc(CN3C(=O)C(C)=C(c4ccc(C)cc4)S3(=O)=O)cc2)cc1 the “growth rescue (activation)” value was inactive: 6.89%. For COc1ccc(NC(=O)C2=C(C)C(=O)OC23CCC(C)CC3)cc1Cl (stereo unspecified), the Potency was inconclusive [activator, partial curve]. With N/C(=N\OC(=O)c1cc(Cl)ccc1Cl)c1ccncc1 the Potency was inconclusive [activator, single point]. For COc1ccc2cc(CNc3ccc(OC)c(OC)c3)c(=O)n(CC(=O)Nc3ccc(C)cc3)c2c1, the “growth rescue (activation)” value was inactive: 3.58%. In the case of O=C(NC1CCCCC1)C(c1ccccc1F)n1c(=O)c(-c2cc3ccccc3[nH]2)nc2ccccc21 (stereo unspecified), the Potency is reported as inconclusive [activator, partial curve]. For Cc1ccc(Cl)cc1NS(=O)(=O)c1ccccc1, the Potency was inconclusive [activator, partial curve]. With Cc1nc(SC2CC(=O)N(c3cc(Cl)cc(Cl)c3)C2=O)nc2c1CCCC2 (stereo unspecified) the Potency was inconclusive [activator, single point]. With O=C(O)c1sccc1SCc1ccc(Cl)c(Cl)c1 the Potency was inconclusive [activator, partial curve]. With N#Cc1ccc(CSc2ccc(S(=O)(=O)N3CCCC3)cn2)cc1 the Potency was inconclusive [activator, single point]. With Cc1ccc(C)c(S(=O)(=O)Nc2ccc3sc(C)nc3c2)c1 the Potency was inconclusive [activator, single point]. With CSc1nnc(-c2cc3ccccc3cc2O)n1C the Potency was inconclusive [activator, partial curve]. For CC1=CC(C)(C)N(S(=O)(=O)c2ccc(C)cc2)c2ccc(C)cc21, the Potency was inconclusive [activator, single point]. With CCCNC(=O)CN1C(=O)c2cccnc2Sc2ccccc21 the “growth rescue (activation)” value was inactive: 15%. For O=C(OC(c1ccc(NS(=O)(=O)c2ccccc2)cc1)(C(F)(F)F)C(F)(F)F)c1ccccc1, the Potency was inconclusive [activator, single point]. With COc1ccc(C2=Nn3c(nnc3-c3ccco3)SC2)cc1 the Potency was active: 22.4 µM. In the case of CCc1nc2c(OCc3ccc(OC(F)F)cc3)cccn2c1N(C)C(=O)c1ccco1, the Potency is reported as inconclusive [activator, partial curve, poor fit]. In the case of O=C(Nc1ncc2c(n1)-c1ccccc1OC2)c1cccc([N+](=O)[O-])c1, the Potency is reported as inconclusive [activator, partial curve]. In the case of CCc1ccc2nc(N3CCN(C(=O)c4ccco4)CC3)sc2c1, the Potency is reported as active: 14.1 µM. In the case of COc1ccc(Cl)cc1CN1C(=O)C(Cc2ccccc2)ON=C1C (stereo unspecified), the Potency is reported as inconclusive [activator, partial curve, poor fit]. For COc1ccc(NC(=O)N2CCN(c3nc(-c4cccc(OC)c4)cs3)CC2)cc1, the Potency was inconclusive [activator, single point]. For CCc1ccc(CNc2nc3nc(C)c(Cc4ccccc4)c(=O)n3[nH]2)cc1, the “growth rescue (activation)” value was inactive: 11.7%. For CC(C)(C)C1=CC(=O)C(=O)C(C(C)(C)C)=C1, the growth rescue (activation) was inconclusive: -93.6% [activator]. In the case of Cc1ccc2ncc3c(-c4ccccc4)nn(CC(=O)NC4CCCCC4)c3c2c1, the “growth rescue (activation)” value is reported as inactive: 10.5%. With CCOC(=O)c1ccc(CNC(=O)c2cc(COc3ccccc3SC)on2)o1 the Potency was inconclusive [activator, partial curve]. With C=CCn1c(C2CC2)n[nH]c1=S the “growth rescue (activation)” value was inactive: 0.93%. For CCc1ccc(N(C(=O)c2snc(C(N)=O)c2N)C(C(=O)NC2CCCC2)c2ccncc2)cc1 (stereo unspecified), the Potency was inconclusive [activator, full curve]. With Clc1ccc(CSc2nc(NCCc3ccccc3)c3ccccc3n2)cc1 the Potency was inconclusive [activator, single point]. In the case of CCN(Cc1ccccc1)S(=O)(=O)c1ccc(C(=O)Nc2nnc(C)o2)cc1, the Potency is reported as inconclusive [activator, single point]. With COc1ccc(S(=O)(=O)N2CCc3ccccc32)cc1[N+](=O)[O-] the Potency was inconclusive [activator, single point]. For Cc1cc(NC(=O)C2CCCN(S(=O)(=O)c3cccc4nonc34)C2)ccc1Br (stereo unspecified), the “growth rescue (activation)” value was inactive: 17.3%. With Cc1cccc2sc(N3CCN(C(=O)c4ccco4)CC3)nc12 the Potency was active: 11.2 µM. With CC1(C)Cc2c(cnn2-c2ccc(F)cc2)C(NC(=O)C2=CC(=O)CC(C)(C)O2)C1 (stereo unspecified) the Potency was inconclusive [activator, full curve, poor fit].
